The other results are listed elsewhere or left out. Values were computed here from the reads of four pooled replicates and scatter widely.
Biological target: T1, Pho4 (S. cerevisiae) (UniProt P07270)
T1 sequence: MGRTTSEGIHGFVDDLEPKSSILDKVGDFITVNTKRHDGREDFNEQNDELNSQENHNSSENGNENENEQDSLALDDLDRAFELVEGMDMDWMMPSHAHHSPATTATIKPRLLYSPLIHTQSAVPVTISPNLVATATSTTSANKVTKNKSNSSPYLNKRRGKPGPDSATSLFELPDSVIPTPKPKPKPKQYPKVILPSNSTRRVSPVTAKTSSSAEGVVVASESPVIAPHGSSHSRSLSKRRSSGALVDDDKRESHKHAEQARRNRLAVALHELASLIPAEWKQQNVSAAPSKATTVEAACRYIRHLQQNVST
Experiment: relative binding free energy (BET-seq); higher = weaker binding
Settings: reference: library average

Sequence	relative binding free energy
AAGGTCACGTGGTGTC	-0.06 kcal/mol
TATGTCACGTGATTTA	0.2 kcal/mol
TTGGTCACGTGGCGAG	0.02 kcal/mol
TGGGGCACGTGAGGTA	0.13 kcal/mol
ATCGGCACGTGAGATG	0.15 kcal/mol
TAGGCCACGTGTTGTA	-0.21 kcal/mol
TGTATCACGTGAGAAT	0.26 kcal/mol
GGTATCACGTGTAAGT	0.22 kcal/mol
TGATTCACGTGGTACT	0.1 kcal/mol
GTGGTCACGTGGCTGT	0.11 kcal/mol
TTATACACGTGTCAGG	0.19 kcal/mol
GAGCGCACGTGGGAGT	-0.17 kcal/mol
AAGGGCACGTGTTCTG	-0.18 kcal/mol
TGTTCCACGTGTGGGC	0.14 kcal/mol
TTGAGCACGTGGGGTC	-0.25 kcal/mol
TAGGTCACGTGGGCTA	-0.04 kcal/mol
AGGATCACGTGAGGAG	0.31 kcal/mol
GAGGTCACGTGTACGG	0.26 kcal/mol
TAAGGCACGTGGAGAA	-0.02 kcal/mol
AGGGGCACGTGGTCGC	-0.28 kcal/mol
AGGGTCACGTGAAGTA	0.29 kcal/mol
TACGGCACGTGGAGGA	0.02 kcal/mol
ACTTGCACGTGCAGGG	-0.03 kcal/mol
GTAAGCACGTGGGATG	-0.13 kcal/mol
TTGGTCACGTGCCTTG	-0.12 kcal/mol
ATAGTCACGTGGCCGG	0.07 kcal/mol

Sequence	relative binding free energy
GTTGCCACGTGTATTA	0.1 kcal/mol
AAGGCCACGTGTTATG	-0.07 kcal/mol
TTGGACACGTGTAGTG	0.06 kcal/mol
TGCGGCACGTGTCGGG	-0.08 kcal/mol
GAATACACGTGCTTGT	0.19 kcal/mol
TGTATCACGTGTATGG	0.14 kcal/mol
ATCTACACGTGATTGT	0.19 kcal/mol
TCATTCACGTGGAATG	0.33 kcal/mol
GCTTTCACGTGGATGG	0.41 kcal/mol
ATGGACACGTGCTGGG	-0.03 kcal/mol
AATATCACGTGGTGAC	0.44 kcal/mol
GGGTACACGTGAATAT	0.36 kcal/mol
TGGTACACGTGGAGTA	0.08 kcal/mol
GATAACACGTGGTTGG	-0.1 kcal/mol
GTTGCCACGTGGTTCG	-0.06 kcal/mol
AATGGCACGTGGTCAG	-0.13 kcal/mol
TGTAGCACGTGCTAAT	0.07 kcal/mol
TGTAGCACGTGCGGAA	-0.15 kcal/mol
ATGAACACGTGTGGGC	0.05 kcal/mol
GTCAGCACGTGAGGTA	0.19 kcal/mol
GGCCTCACGTGGATGT	0.28 kcal/mol
CTTTGCACGTGGATGG	-0.06 kcal/mol
TTAGACACGTGGTATT	-0.09 kcal/mol
TCTGACACGTGGTGCT	-0.04 kcal/mol
TTTTTCACGTGGCTTG	0.21 kcal/mol
ATTATCACGTGTGTGA	0.16 kcal/mol

Sequence	relative binding free energy
GCGGGCACGTGGGCGA	-0.29 kcal/mol
TTAGGCACGTGATCCG	-0.04 kcal/mol
AGGTACACGTGTTCGG	0.01 kcal/mol
TTTCACACGTGTGTGA	0 kcal/mol
GTGTGCACGTGCGACG	0.06 kcal/mol
AGTGGCACGTGAGTCA	0.14 kcal/mol
ATTGTCACGTGTATGC	-0.01 kcal/mol
GTTAGCACGTGCAGGT	0 kcal/mol
ATTTGCACGTGGCTTT	-0.04 kcal/mol
AGCGACACGTGGTTGT	-0.06 kcal/mol
GTGGTCACGTGGGCTA	-0.09 kcal/mol
GGTAGCACGTGCTATG	-0.05 kcal/mol
TGTGTCACGTGGGGAG	0.01 kcal/mol
GGGTGCACGTGTAGCA	0.03 kcal/mol
GTGATCACGTGCTAGG	0.01 kcal/mol
TAGAGCACGTGTAGTG	-0.08 kcal/mol
CGGGACACGTGTTGTT	0.2 kcal/mol
TTGGGCACGTGGTCAA	-0.21 kcal/mol
TTTGACACGTGTGGGA	0.09 kcal/mol
TGCGTCACGTGTGGTC	-0.06 kcal/mol
CACGGCACGTGTTGTG	-0.04 kcal/mol
TATTGCACGTGAGCGG	0.15 kcal/mol
ACGGGCACGTGTGAAG	-0.07 kcal/mol
TTTATCACGTGTGAAA	0.25 kcal/mol
GTAATCACGTGTGAGG	0.23 kcal/mol
TAGGACACGTGTTTAT	0.02 kcal/mol

Sequence	relative binding free energy
AGTGGCACGTGGCGGA	-0.21 kcal/mol
TATTGCACGTGTAAAA	0.06 kcal/mol
ATTGACACGTGGTGGG	-0.08 kcal/mol
GTAGTCACGTGGTAGG	0.12 kcal/mol
TTGGGCACGTGAATGG	0.14 kcal/mol
TAACGCACGTGGTTTT	-0.08 kcal/mol
AGGGGCACGTGCGATT	-0.23 kcal/mol
AATATCACGTGGTTGT	0.17 kcal/mol
CGGGGCACGTGTTATA	-0.19 kcal/mol
GATTGCACGTGTTCTG	-0.03 kcal/mol
TTCATCACGTGGCGTT	0.19 kcal/mol
GATGTCACGTGTGATC	0.29 kcal/mol
TTTTACACGTGAGGAT	0.33 kcal/mol
GTTTTCACGTGAAAAT	0.41 kcal/mol
TTGGACACGTGGGCTA	0.05 kcal/mol
GGAATCACGTGAAGGA	0.56 kcal/mol
TTGGGCACGTGTTTCT	-0.15 kcal/mol
TGGGTCACGTGTTCGC	0.16 kcal/mol
ATTCTCACGTGGGGGG	0.14 kcal/mol
TCTGTCACGTGGTAAA	0.11 kcal/mol
ATTTTCACGTGTTGCT	0.23 kcal/mol
TGTAGCACGTGGTTCT	-0.22 kcal/mol
CTTATCACGTGGTTTA	0.02 kcal/mol
TAATGCACGTGAAGGA	0.27 kcal/mol
TGGTGCACGTGTAGTT	0.13 kcal/mol
ACTGTCACGTGGGTGT	-0.01 kcal/mol

Sequence	relative binding free energy
ATTAACACGTGCGTGT	-0.13 kcal/mol
TTTTTCACGTGGAATA	0.33 kcal/mol
AGGAACACGTGGTATG	-0.15 kcal/mol
GTAATCACGTGTGTGC	0.31 kcal/mol
GGCGACACGTGTGGGC	0.19 kcal/mol
CTTCACACGTGGGGGA	0.05 kcal/mol
GCTTACACGTGTAGTT	0.19 kcal/mol
TAAGTCACGTGCGTTG	0.06 kcal/mol
TGGGCCACGTGGGGCG	-0.25 kcal/mol
TTGATCACGTGTCTAT	0.11 kcal/mol
ATAGACACGTGTGTGC	0.03 kcal/mol
GGGGGCACGTGCGATA	-0.04 kcal/mol
TTTGTCACGTGAGATC	0.32 kcal/mol
AGGTACACGTGGTCTT	-0.02 kcal/mol
TCAGCCACGTGGGGGG	-0.15 kcal/mol
GGAGGCACGTGGGTTA	-0.16 kcal/mol
TCGCTCACGTGAGGTT	0.43 kcal/mol
CTGGACACGTGTTTTG	-0.07 kcal/mol
ACGTGCACGTGTATGG	-0.08 kcal/mol
TGGGCCACGTGGCTTT	-0.1 kcal/mol
ATAAACACGTGTTTTG	0.03 kcal/mol
GGTTTCACGTGAGGAC	0.56 kcal/mol
TCACGCACGTGGTGGT	-0.21 kcal/mol
TTGGTCACGTGGTTCT	0.05 kcal/mol
GTCGTCACGTGTTTGA	0.19 kcal/mol
TGAAGCACGTGGAGCG	-0.06 kcal/mol

Sequence	relative binding free energy
ATTGACACGTGGGGTA	-0.17 kcal/mol
ATTTACACGTGGGAAT	-0.03 kcal/mol
GCTGGCACGTGCAGTG	-0.04 kcal/mol
TGGCACACGTGGAGGT	0.06 kcal/mol
GTGAACACGTGTTAGT	-0.01 kcal/mol
GTTCTCACGTGAGGGC	0.47 kcal/mol
TTGTACACGTGGATTA	0.01 kcal/mol
AGGTGCACGTGATAAA	0.15 kcal/mol
CTTTTCACGTGTGGGA	0.28 kcal/mol
TGATACACGTGGGCGA	-0.1 kcal/mol
GGATGCACGTGCGTTT	-0.1 kcal/mol
AGTTTCACGTGTCAAG	0.2 kcal/mol
GGTAGCACGTGTCGTT	0.01 kcal/mol
GGGTCCACGTGTGAAG	0.12 kcal/mol
CATGTCACGTGTTGTG	0.12 kcal/mol
TGTTACACGTGGGCTA	0.04 kcal/mol
ATATTCACGTGACGTG	0.35 kcal/mol
ACTGTCACGTGGCGGT	0 kcal/mol
TCGGGCACGTGGGGGC	-0.2 kcal/mol
AGAGACACGTGCGGTG	-0.08 kcal/mol
TGTGACACGTGGGAAC	-0.03 kcal/mol
GTTGACACGTGGAGGG	0.04 kcal/mol
TTTAACACGTGATTTA	-0.02 kcal/mol
ATGGGCACGTGCAGAG	-0.08 kcal/mol
GGTCACACGTGGAGTA	0.05 kcal/mol
TACGGCACGTGGGGGG	-0.23 kcal/mol

Sequence	relative binding free energy
AGTCGCACGTGGAGGG	-0.13 kcal/mol
AGATACACGTGTGTGG	-0.03 kcal/mol
TCGGGCACGTGGTGAT	-0.11 kcal/mol
ACGTTCACGTGCTTGG	0.1 kcal/mol
AGATACACGTGGGGGG	-0.1 kcal/mol
AAAGTCACGTGGGTTT	0.07 kcal/mol
TTTCGCACGTGTGCGT	-0.19 kcal/mol
AACAGCACGTGAAGGG	0.29 kcal/mol
TGGGTCACGTGGAGGC	0.19 kcal/mol
TGTCGCACGTGGTTAT	-0.15 kcal/mol
ATCTTCACGTGGTTTA	0.12 kcal/mol
CGGGACACGTGGTTAA	0.02 kcal/mol
GTAAGCACGTGCCGGG	-0.14 kcal/mol
ATGTGCACGTGTTAGT	-0.12 kcal/mol
TGGAGCACGTGATGGG	0.06 kcal/mol
AGAATCACGTGGTGAG	0.11 kcal/mol
TGGGACACGTGAAGCG	0.24 kcal/mol
TGAGTCACGTGGCGAG	-0.02 kcal/mol
GCTGTCACGTGCTGGT	0.04 kcal/mol
TGATCCACGTGTTTTG	0.04 kcal/mol
GGATTCACGTGTAGAG	0.3 kcal/mol
AAATTCACGTGGGGAT	0.2 kcal/mol
TGCTGCACGTGCGGTT	-0.01 kcal/mol
TCGAGCACGTGGGCTT	-0.06 kcal/mol
TAGAACACGTGAGGTG	0.23 kcal/mol
TTCTTCACGTGTATTA	0 kcal/mol

Sequence	relative binding free energy
TGTAACACGTGAATGG	0.33 kcal/mol
GGTATCACGTGGGACA	0.25 kcal/mol
TCAGCCACGTGGTAGT	0.06 kcal/mol
CATTTCACGTGGTGAG	0.22 kcal/mol
GAAAGCACGTGGGTTC	0.04 kcal/mol
GGGCGCACGTGATTAG	0.06 kcal/mol
AAGATCACGTGGTGTG	0.03 kcal/mol
TAGTGCACGTGGGGCC	-0.21 kcal/mol
AGGGGCACGTGGCTTG	-0.3 kcal/mol
GTACGCACGTGTGTGT	-0.2 kcal/mol
GTAGGCACGTGGATTA	-0.01 kcal/mol
GATTGCACGTGAGGGC	0.16 kcal/mol
TCATGCACGTGTGCTG	-0.07 kcal/mol
AGGCTCACGTGTTGAG	0.2 kcal/mol
GTTGGCACGTGGTGGT	-0.02 kcal/mol
TGCAACACGTGGTGTT	-0.09 kcal/mol
GTATACACGTGCGTGT	-0.14 kcal/mol
TTCAACACGTGGATGT	0.03 kcal/mol
TAGGTCACGTGGGTCG	-0.08 kcal/mol
TAGGGCACGTGGACTG	-0.14 kcal/mol
GTATCCACGTGAGGGG	0.19 kcal/mol
CGGGGCACGTGCTTTG	-0.26 kcal/mol
CCGGCCACGTGGGTTG	-0.04 kcal/mol
GTGTGCACGTGTGCTT	0.05 kcal/mol
TATAGCACGTGCGATG	-0.07 kcal/mol
GTAGGCACGTGTGCTT	-0.03 kcal/mol

Sequence	relative binding free energy
ATGGTCACGTGATGTC	0.17 kcal/mol
ATAAACACGTGAGTTT	0.18 kcal/mol
CGAAGCACGTGGGGGT	-0.22 kcal/mol
ACTGGCACGTGAATGT	0.09 kcal/mol
GTAGGCACGTGTTCAG	-0.03 kcal/mol
TGCGTCACGTGCTCGG	0.02 kcal/mol
CAAGACACGTGGGGGG	-0.17 kcal/mol
TGAGACACGTGGTGGG	-0.02 kcal/mol
GTTTACACGTGGTGTG	0.18 kcal/mol
AGTGACACGTGTTGAA	0.09 kcal/mol
GCTTGCACGTGTGTGT	0.03 kcal/mol
AGTTTCACGTGTAGGT	0.18 kcal/mol
GGAGCCACGTGGTGTT	-0.09 kcal/mol
GTGGGCACGTGGTGCT	-0.18 kcal/mol
CTATGCACGTGAAGGG	0.04 kcal/mol
TATTGCACGTGGGGAC	-0.06 kcal/mol
CTCGGCACGTGCGGGG	-0.11 kcal/mol
GTCTTCACGTGTTCGT	0.31 kcal/mol
TTATGCACGTGTGCGA	0 kcal/mol
GAATACACGTGGATGT	0.2 kcal/mol
ATTTGCACGTGTAAAT	0.13 kcal/mol
TGTTCCACGTGATGGG	0.18 kcal/mol

From the BET-seq Pho4 binding data (Le et al. 2018)
